Compound in assay [1]: O=C(/C=C/c1cccnc1)NCCCCC1CCN(C(=O)c2ccccc2)CC1 [FK866]
The assay can be described thus: Viability of human cancer cell lines after 72 h of drug (GDSC screen). As to conditions: top dose 1 µM; top dose inferred. On the procedure:
(§1)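 Human cancer cell lines in 384-well plates, medium with 10% serum, drug for 72 h over a 256-fold dose range (nine 2-fold or five 4-fold steps up to the top dose). Adherent lines were fixed and stained with the nucleic acid dye Syto60, suspension lines read with resazurin; signal relative to control wells, capped at 0 and 100%. One two-parameter sigmoid per drug and line, fitted in a mixed model over all curves with the slope shared within a line.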

Compound in assay [2]: Nc1[nH]nc2nnc(-c3c(-c4ccccc4)nn4ccccc34)cc12 [FR-180204]
The description is as above. The settings on record: top dose 20 µM; top dose inferred. On the procedure:
as §1

A lower IC50 marks a more sensitive line; fits outside the tested doses are given as limits. AUC, from the same fit, is the share of area under the viability curve across the 256-fold dose range: 1 means no effect, lower means more sensitive. Any top dose called inferred was calculated from the reported fits.

Broadly, the IC50 is the midpoint of a concentration-inhibition curve.

Take BALL-1 (B-cell leukaemia, suspension): in assay [1], the AUC is 0.008 and the IC50 is below 0.00391 µM.
The matching figures for BT-549 (breast, adherent): 0.689 and 0.263 µM.
The matching figures for CL-34 (large intestine, adherent): 0.891 and above 1 µM.
For CL-40 (large intestine, adherent) the same measures were 0.915 and above 1 µM.
For the cell line “CML-T1 (chronic myeloid leukaemia, suspension)”, in assay [1], the AUC was 0.033 and the half-inhibitory concentration (IC50) was below 0.00391 µM.
The matching figures for “COR-L32 (small cell lung carcinoma, suspension)”: 0.359 and 0.0169 µM.
As for CRO-AP2 (B-cell lymphoma, suspension), in assay [1], the AUC stood at 0.042 and the IC50 was below 0.00391 µM.
The matching figures for DIFI (large intestine, adherent): 0.4 and 0.0327 µM.
On to EHEB (lymphoid neoplasm, suspension), for which, in assay [1], the AUC was determined as 0.41 and the IC50 worked out at 0.0318 µM.
In the case of EW-22 (Ewing sarcoma, adherent), in assay [1], the AUC turned out to be 0.151 and the IC50 turned out to be 0.00553 µM.
On to GA-10 (Burkitt lymphoma, suspension), for which, in assay [1], the AUC worked out at 0.04 and the IC50 is below 0.00391 µM.
The matching figures for H290 (mesothelioma, adherent): 0.988 and above 1 µM.
For the cell line H2810 (mesothelioma, adherent), in assay [1], the AUC is 0.803 and the IC50 was 0.559 µM.
On to “HCC-366 (non-small cell lung carcinoma, adherent)”, for which, in assay [1], the AUC amounted to 0.61 and the IC50 was 0.127 µM.
As for IGROV-1 (ovary, adherent), in assay [1], the AUC worked out at 0.665 and the IC50 stood at 0.224 µM.
For IM-9 (myeloma, suspension), in assay [1], the AUC is 0.076 and the concentration for half-maximal inhibition (IC50) is below 0.00391 µM.
The matching figures for “IST-SL2 (small cell lung carcinoma, suspension)”: 0.035 and below 0.00391 µM.
In the case of JEKO-1 (B-cell lymphoma, suspension), in assay [1], the AUC was determined as 0.025 and the IC50 is below 0.00391 µM.
As to JHU-029 (head and neck, adherent), in assay [1], the AUC turned out to be 0.323 and the IC50 came out at 0.0177 µM.
For “KARPAS-231 (B-cell leukaemia, suspension)” the same measures were 0.021 and below 0.00391 µM.
The matching figures for “KARPAS-1106P (B-cell lymphoma, suspension)”: 0.048 and below 0.00391 µM.
For “KASUMI-1 (acute myeloid leukaemia, suspension)” the same measures were 0.191 and 0.00746 µM.
Turning to KATOIII (stomach, semi-adherent), in assay [1], the AUC is 0.062 and the IC50 was below 0.00391 µM.
For “KNS-62 (lung squamous cell carcinoma, adherent)” the same measures were 0.633 and 0.172 µM.
Consider KP-1N (pancreas, adherent), for which, in assay [1], the AUC was found to be 0.243 and the IC50 was 0.0109 µM.
The matching figures for “LB647-SCLC (small cell lung carcinoma, semi-adherent)”: 0.099 and below 0.00391 µM.
For MEL-HO (melanoma, adherent) the same measures were 0.469 and 0.0513 µM.
Consider “MHH-CALL-2 (B-cell leukaemia, suspension)”, for which, in assay [1], the AUC is 0.577 and the IC50 is 0.0961 µM.
As to MKN7 (stomach, adherent), in assay [1], the AUC was determined as 0.909 and the IC50 was above 1 µM.
The matching figures for “MOLM-16 (acute myeloid leukaemia, suspension)”: 0.948 and above 1 µM.
The matching figures for “MOLT-16 (T-cell lymphoblastic leukaemia, suspension)”: 0.016 and below 0.00391 µM.
Turning to NCC010 (kidney, adherent), in assay [1], the AUC was 0.447 and the IC50 was 0.0442 µM.
For “NCI-H146 (small cell lung carcinoma, suspension)” the same measures were 0.097 and 0.00466 µM.
On to “NCI-H3122 (lung adenocarcinoma, adherent)”, for which, in assay [2], the AUC is 0.974 and the IC50 is above 20 µM.
The matching figures for NCI-SNU-16 (stomach, suspension): 0.991 and above 20 µM.
On to “NOMO-1 (acute myeloid leukaemia, suspension)”, for which, in assay [2], the AUC is 0.948 and the IC50 is above 20 µM.
Regarding OCUM-1 (stomach, adherent), in assay [2], the AUC was 0.977 and the IC50 is above 20 µM.
For PA-1 (ovary, adherent) the same measures were 0.961 and above 20 µM.
Turning to PFSK-1 (medulloblastoma, adherent), in assay [2], the AUC stood at 0.98 and the IC50 was above 20 µM.
The matching figures for RCC10RGB (kidney, adherent): 0.928 and above 20 µM.
Turning to RPMI-7951 (melanoma, adherent), in assay [2], the AUC was found to be 0.974 and the IC50 was above 20 µM.
For RPMI-8226 (myeloma, suspension) the same measures were 0.973 and above 20 µM.
For SAT (head and neck, adherent) the same measures were 0.965 and above 20 µM.
The matching figures for SCC-3 (B-cell lymphoma, suspension): 0.997 and above 20 µM.
As to “SIG-M5 (acute myeloid leukaemia, suspension)”, in assay [2], the AUC amounted to 0.474 and the 50% inhibitory concentration (IC50) was determined as 1.08 µM.
SNU-175 (large intestine, suspension): in assay [2], the AUC is 0.917 and the IC50 is above 20 µM.
For SNU-475 (liver, adherent) the same measures were 0.991 and above 20 µM.
For “SU-DHL-1 (anaplastic large cell lymphoma, suspension)” the same measures were 0.997 and above 20 µM.
For the cell line SU-DHL-8 (B-cell lymphoma, suspension), in assay [2], the AUC came to 0.988 and the IC50 was above 20 µM.
As for “SUP-B15 (lymphoblastic leukaemia, suspension)”, in assay [2], the AUC stood at 0.89 and the half-maximal inhibitory concentration (IC50) was above 20 µM.
For SW954 (urogenital system, adherent), in assay [2], the AUC turned out to be 0.965 and the IC50 was above 20 µM.
For “TALL-1 (T-cell lymphoblastic leukaemia, suspension)” the same measures were 0.988 and above 20 µM.
Consider TE-441-T (rhabdomyosarcoma, adherent), for which, in assay [2], the AUC was determined as 0.97 and the IC50 is above 20 µM.
For UACC-812 (breast, adherent) the same measures were 0.975 and above 20 µM.
The matching figures for UACC-893 (breast, adherent): 0.977 and above 20 µM.
The matching figures for VMRC-RCW (kidney, adherent): 0.979 and above 20 µM.
For the cell line YMB-1-E (breast, adherent), in assay [2], the AUC was determined as 0.971 and the concentration for half-maximal inhibition (IC50) was above 20 µM.
